Assay results published in article PMC4336329 (PLoS ONE, 2015).
The campaign covered roughly 310,000 compounds. About 14,000 (4.5%) showed an effect of 50% or more. The effect is printed as a negative number. Some of the results follow.

These compounds were tested against human ether-à-go-go-related gene (hERG) potassium channel (human, UniProt Q12809) (assay: primary screen, population patch clamp on CHO cells stably expressing hERG).
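Note: peak tail current of the secondary pulse compared with the same well before compound.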

Sequence of human ether-à-go-go-related gene (hERG) potassium channel (Q12809 whole entry, looked up): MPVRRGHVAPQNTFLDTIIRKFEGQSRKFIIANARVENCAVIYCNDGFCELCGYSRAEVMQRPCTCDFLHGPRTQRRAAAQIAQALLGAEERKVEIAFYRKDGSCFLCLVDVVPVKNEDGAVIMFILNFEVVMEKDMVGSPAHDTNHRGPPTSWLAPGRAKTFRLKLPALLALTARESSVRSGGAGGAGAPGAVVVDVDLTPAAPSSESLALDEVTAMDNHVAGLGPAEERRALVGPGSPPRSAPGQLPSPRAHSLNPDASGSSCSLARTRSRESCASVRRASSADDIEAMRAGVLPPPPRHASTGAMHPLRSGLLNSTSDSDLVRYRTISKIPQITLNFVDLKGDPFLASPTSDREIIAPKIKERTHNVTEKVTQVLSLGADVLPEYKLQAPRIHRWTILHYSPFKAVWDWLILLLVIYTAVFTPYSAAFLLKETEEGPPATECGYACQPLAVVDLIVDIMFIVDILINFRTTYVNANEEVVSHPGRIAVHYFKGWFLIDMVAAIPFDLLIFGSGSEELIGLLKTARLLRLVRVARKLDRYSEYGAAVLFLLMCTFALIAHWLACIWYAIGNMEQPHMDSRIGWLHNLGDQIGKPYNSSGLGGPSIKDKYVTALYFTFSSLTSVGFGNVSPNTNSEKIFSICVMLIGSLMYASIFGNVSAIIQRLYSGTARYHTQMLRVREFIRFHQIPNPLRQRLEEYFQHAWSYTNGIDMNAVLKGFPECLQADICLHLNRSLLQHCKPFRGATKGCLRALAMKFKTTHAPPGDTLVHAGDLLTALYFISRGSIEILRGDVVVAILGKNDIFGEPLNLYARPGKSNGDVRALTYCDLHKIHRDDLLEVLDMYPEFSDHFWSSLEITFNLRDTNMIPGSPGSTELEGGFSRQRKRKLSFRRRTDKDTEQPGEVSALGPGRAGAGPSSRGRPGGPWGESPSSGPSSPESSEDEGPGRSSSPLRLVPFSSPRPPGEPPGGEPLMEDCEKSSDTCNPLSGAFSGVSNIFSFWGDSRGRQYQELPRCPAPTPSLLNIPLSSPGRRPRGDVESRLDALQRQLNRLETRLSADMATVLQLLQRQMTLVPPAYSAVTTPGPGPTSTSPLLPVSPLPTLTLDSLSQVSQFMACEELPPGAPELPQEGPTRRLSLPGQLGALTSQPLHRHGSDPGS

First: CC(C)C(NS(=O)(=O)c1cccc2nsnc12)C(=O)Nc1nc2ccc(Cl)cc2s1 (centres unmarked)
Second: O=C(NC(=S)Nc1nc(-c2cccc([N+](=O)[O-])c2)cs1)c1cc(Cl)ccc1Cl
The “hERG current change (%, negative = inhibition) at 10uM” value of the first is lower: 15.4% for the first, 16.7% for the second.

Compared with `C=CCNC(=S)N/N=C(\C)c1cccc(NC(C)=O)c1`, `CN(C)c1c(F)cc(C(=O)NCc2ccccc2)cc1F` is lower in “hERG current change (%, negative = inhibition) at 10uM” value: -0.426% for the first, -4.04% for the second.

Going from `COc1ccc(CCCNC(=O)C2CCC(=O)N(CC3CCCCC3)C2)cc1` (centres unmarked) to `CC(C)(Sc1ccc(CCN(CCCCC2CCCCC2)C(=O)NC2CCCCC2)cc1)C(=O)O`, the “hERG current change (%, negative = inhibition) at 10uM” value rises from -16.6% to -10.2%.

Compared with `Cc1cc(=O)n2nc(N3CCCC(C(=O)NCCc4ccccc4)C3)sc2n1` (centres unmarked), `Cc1csc(SCC(=O)N2CCN(S(=O)(=O)c3ccccc3)CC2)n1` is higher in “hERG current change (%, negative = inhibition) at 10uM” value: -13.3% for the first, 0.299% for the second.

Going from `COc1ccc(NC(=S)N2CCC(N(C)CC3CCCO3)CC2)cc1Cl` (centres unmarked) to `COC(=O)c1cc(NCc2ccc3c(c2)OCO3)ccc1N1CCOCC1`, the “hERG current change (%, negative = inhibition) at 10uM” value rises from -35.5% to -23.8%.

First: Cc1c(N2C(=O)c3ccc(Br)cc3C2=O)c(=O)n(-c2ccccc2)n1C
Second: OCCNc1nc(-c2ccccc2)c2cc(Br)ccc2n1
The “hERG current change (%, negative = inhibition) at 10uM” value of the first is lower: 3.45% for the first, 5.26% for the second.

First: O=C(N/N=C/c1cccc(O)c1)c1cc2c(ccc3ccccc32)o1
Second: CCOC(=O)c1oc2ccccc2c1NC(=O)c1ccc2c(c1)OCO2
The “hERG current change (%, negative = inhibition) at 10uM” value of the first is higher: 9.87% for the first, -26.3% for the second.

Compared with `CC(C)CN1C(=S)SC(C)(C)C1n1oc(=O)n(-c2ccccc2)c1=O` (centres unmarked), `O=C1c2ccccc2NC(c2cccc(F)c2)N1Cc1ccco1` (centres unmarked) is lower in “hERG current change (%, negative = inhibition) at 10uM” value: 15.1% for the first, -48.6% for the second.

First: Cc1nn(-c2ccccc2)c(C)c1/C=N\N1CCN(c2ccc(Cl)cc2)CC1
Second: COc1ccccc1C(=O)N1CCN(C(=O)c2oc3ccc(C)cc3c2C)CC1
The “hERG current change (%, negative = inhibition) at 10uM” value of the first is higher: 2.97% for the first, -31.1% for the second.

First: CCN(CC)C(=O)c1[nH]cnc1C(=O)NCC(=O)OCc1ccccc1
Second: CCC(c1nnc(SCC(=O)Nc2ccc(C(N)=O)cc2)n1Cc1ccccc1)N(C)C (centres unmarked)
The “hERG current change (%, negative = inhibition) at 10uM” value of the first is lower: -0.416% for the first, 8.45% for the second.

First: COc1ccc(CCNC(=O)CCc2ccsc2)cc1OC
Second: COc1cc2c(cc1OC)CN(Cc1ccccc1)CC2
The “hERG current change (%, negative = inhibition) at 10uM” value of the first is lower: 11.7% for the first, 16.5% for the second.

First: CCCCn1c(SCC(=O)c2ccc(OC)cc2OC)nc2cc(S(N)(=O)=O)ccc21
Second: COc1ccc(OC)c(C(c2nnnn2C(C)(C)C)N2CCc3ccccc3C2)c1.Cl (centres unmarked)
The “hERG current change (%, negative = inhibition) at 10uM” value of the first is higher: -4.4% for the first, -4.67% for the second.

First: CC(C)c1nnc(NC(=O)CC23CC4CC(CC(C4)C2)C3)s1
Second: Cc1ccc(NC(=O)CSc2nnc(NC(=O)C3CC3)s2)cc1
The “hERG current change (%, negative = inhibition) at 10uM” value of the first is lower: 4.22% for the first, 25.7% for the second.

Compared with `CC(C)OC(=O)C(NC(=O)c1ccccc1)=C1CCCCC1`, `COc1ccccc1/C=C/CN1CCCCC1` is lower in “hERG current change (%, negative = inhibition) at 10uM” value: 18.6% for the first, -2.31% for the second.

Compared with `N#Cc1ccc(N2CCNCC2)c(F)c1`, `O=C1Nc2ccc(C(F)(F)F)cc2N2CCCC12` (centres unmarked) is higher in “hERG current change (%, negative = inhibition) at 10uM” value: -69% for the first, -1.52% for the second.

Compared with `CCn1c(CSc2nc3ccccc3s2)nc2ccccc21`, `CCC(C)(C)n1nnnc1C(c1cccs1)N1CCN(Cc2ccccc2)CC1` (centres unmarked) is lower in “hERG current change (%, negative = inhibition) at 10uM” value: -18.7% for the first, -37.2% for the second.

Compared with `CCc1nc(NCCN2CCOCC2)c(C#N)c2c1CCCC2`, `N#C/C(=C\c1c(N2CCCCCC2)nc2ccccn2c1=O)C(=O)NCc1ccco1` is lower in “hERG current change (%, negative = inhibition) at 10uM” value: -37.2% for the first, -46.8% for the second.

Going from `Cc1nc2sc(C(=O)OCC(=O)N3c4ccccc4CC3C)c(C)c2c(=O)[nH]1` (centres unmarked) to `CCC(=O)N(c1ccc(C(=O)O)cc1)c1nc(-c2ccc(OC)cc2)c(C)s1`, the “hERG current change (%, negative = inhibition) at 10uM” value falls from 5.27% to 3.06%.

Compared with `CC(C)CCN1NC2(CCCC(C)C2)NC1=S` (centres unmarked), `CC(CNC(=O)CCC(=O)N1CCOc2ccc(Cl)cc21)c1ccccc1` (centres unmarked) is lower in “hERG current change (%, negative = inhibition) at 10uM” value: 11.6% for the first, -40.6% for the second.

Going from `CCOc1ccc(-n2c(=O)c3sccc3n(Cc3ccc(C)cc3)c2=O)cc1` to `Cc1ccc(CCC(=O)Nc2ccc(CC(=O)O)cc2)o1`, the “hERG current change (%, negative = inhibition) at 10uM” value rises from 0.351% to 10.5%.

Compared with `NNC(=O)c1cc(Cl)ccc1Cl`, `Cc1ccc(S(=O)(=O)NC(CC(N)=O)C(=O)O)cc1` (centres unmarked) is lower in “hERG current change (%, negative = inhibition) at 10uM” value: 12.6% for the first, 7.48% for the second.

Compared with `CN(C)/C=N/c1sccc1C(N)=O`, `COc1ccc(NC(=O)c2cc(-c3cc(OC)c(OC)c(OC)c3)nc3ccccc23)cc1OC` is higher in “hERG current change (%, negative = inhibition) at 10uM” value: 6.62% for the first, 13% for the second.
